Experimental data as given in PubChem BioAssay AID596 (National Center for Advancing Translational Sciences (NCATS), 2007).
In all, about 71,000 compounds went through this assay and about 1,400 (2%) were called active. Inconclusive means that the source gave no clear call. Such entries were picked first, then a sample of the others. Calls come from the whole dose curve; as a rule, active = well fitted curve in the direction sought with a large enough effect; inconclusive = small, poorly fitted or top-dose-only effect; inactive = no such curve, though single readings can be large or run the other way. A potency beside an inconclusive call is a rough fit, not a confirmed value.

target: Microtubule-associated protein tau (Homo sapiens) (UniProt P10636); experiment: qHTS Assay for Tau Filament Binding; conditions: recombinant tau filaments, thioflavin S fluorescence, 15 h, filaments grown with octadecylsulfate alongside compound; series mostly up to 57.1 µM; activity change, negative = inhibition: at the top concentration;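 note: actives lower thioflavin S fluorescence by blocking filaments or displacing dye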
UniProt P10636, sequence (P10636 whole entry, looked up): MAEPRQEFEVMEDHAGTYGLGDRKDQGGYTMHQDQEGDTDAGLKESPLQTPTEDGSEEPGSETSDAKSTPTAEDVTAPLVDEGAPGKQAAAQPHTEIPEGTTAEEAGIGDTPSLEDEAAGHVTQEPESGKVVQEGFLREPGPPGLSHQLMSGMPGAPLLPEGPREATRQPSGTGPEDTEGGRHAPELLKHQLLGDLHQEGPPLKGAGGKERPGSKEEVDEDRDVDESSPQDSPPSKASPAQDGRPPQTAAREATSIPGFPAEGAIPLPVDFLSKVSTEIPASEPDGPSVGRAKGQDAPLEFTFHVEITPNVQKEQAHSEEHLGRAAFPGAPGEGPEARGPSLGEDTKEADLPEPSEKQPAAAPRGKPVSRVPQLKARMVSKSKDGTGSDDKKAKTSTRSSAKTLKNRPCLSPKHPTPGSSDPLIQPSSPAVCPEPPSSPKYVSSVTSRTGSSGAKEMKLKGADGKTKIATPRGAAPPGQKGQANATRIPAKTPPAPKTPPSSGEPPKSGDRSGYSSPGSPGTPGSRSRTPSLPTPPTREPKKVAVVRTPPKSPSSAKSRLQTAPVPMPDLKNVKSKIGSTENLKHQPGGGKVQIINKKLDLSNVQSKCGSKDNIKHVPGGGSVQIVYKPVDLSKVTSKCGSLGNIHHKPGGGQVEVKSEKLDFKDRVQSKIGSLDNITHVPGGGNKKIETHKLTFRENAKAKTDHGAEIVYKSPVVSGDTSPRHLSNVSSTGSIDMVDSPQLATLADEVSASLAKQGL
Summary of the method: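 Quantitative HTS: thioflavine S signal from ODS-induced tau filaments, excited at 450 nm, emission 510 nm. Conditions: 1 uM tau, 30 uM ODS, 15 h at 37 C, pH 7.4.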
% is set by controls: 0 for no effect and ±100 for the full control effect; potency is the fitted concentration of half-maximal effect.

Potency, inactive:
C=C(CC)C(=O)c1ccc(OCC(=O)O)c(Cl)c1Cl

Potency, inconclusive:
COc1cccc(Cn2c(=O)c(-c3ccc(Cl)cc3)nc3cnc(N4CCN(C)CC4)nc32)c1 5.01 µM [decreasing], CCCCCCCCCCCCCCCC(=O)O[C@H](CC(=O)O)C[N+](C)(C)C 39.8 µM [decreasing], CN(C)c1ccc(C2C3=C(CCCC3=O)OC3=C2C(=O)CCC3)cc1 20 µM [decreasing], C/C(=C\C(=O)c1cccnc1)Nc1ccc(C)c(C)c1 12.6 µM [decreasing], COc1ccc([N+](=O)[O-])c2c1CCN2C(=O)CC[C@H](N)C(=O)O 39.8 µM [decreasing], CCOC(=O)C(C)n1cnc2sc3c(c2c1=O)CCC3 (stereo not given) 3.16 µM [decreasing], CN1Cc2c(C(=O)OC(C)(C)C)ncn2-c2ccsc2C1=O 39.8 µM [decreasing], Cc1ccc2c(CSc3nnc(C4CC4)n3N)cc(=O)oc2c1C 39.8 µM [decreasing], CCOC(=O)c1cc(C(=O)OCC)c2cc(Br)ccc2n1 31.6 µM [decreasing], O=C1NC(=O)C(c2ccccc2[N+](=O)[O-])=C1Nc1ccc(O)c(Cl)c1 39.8 µM [decreasing], CC(C)NC[C@H](O)c1ccc(NS(C)(=O)=O)cc1 39.8 µM [decreasing], NC(N)=NN=Cc1c(Cl)cccc1Cl 39.8 µM [decreasing], Nc1c(C(=O)c2cccs2)oc2ccccc12 25.1 µM [decreasing], C=C1C[C@@]23C[C@]1(O)CC[C@@H]2[C@]12C=C[C@@H](O)[C@@](C)(C(=O)O1)[C@@H]2[C@@H]3C(=O)O 39.8 µM [decreasing], c1ccc(-c2cc3c(N4CCOCC4)ncnc3s2)cc1 25.1 µM [decreasing], COc1ccc(Cl)cc1NC(=O)c1oc(C)nc1C 39.8 µM [decreasing], Oc1ccc(-c2nc(-c3ccc(F)cc3)c(-c3ccncc3)[nH]2)cc1 39.8 µM [decreasing], O=c1c(-c2ccc(Cl)cc2)nc2cnc(Nc3ccccc3)nc2n1C1CC1 20 µM [decreasing], O=C(CN1C(=O)CSc2ccccc21)Nc1ccc2c(c1)OCCO2 39.8 µM [decreasing], CCOC(=O)c1c(-c2ccsc2)csc1N 39.8 µM [decreasing], Cc1ccc(-c2cccc(NC(=O)C3C(C(=O)O)[C@@H]4C=C[C@H]3C4)c2)o1 (stereo not given in full) 12.6 µM [decreasing], c1cc(CNc2ccc3c(c2)OCO3)ccn1 31.6 µM [decreasing], O=C(c1csnn1)N1CCC[C@@]2(CCN(c3cccc(-c4ccccc4)c3)C2)C1 39.8 µM [decreasing], C=CCSC1=N/C(=C\c2ccc(C)o2)C(=O)S1 25.1 µM [decreasing], CCCn1c(C)cc(=O)c2cc(NC(=O)c3cnccn3)ccc21 10 µM [decreasing], O=C(C(NS(=O)(=O)c1cccc2nsnc12)c1ccccc1)N1CCN(c2ccccn2)CC1 (stereo not given) 15.8 µM [decreasing], O=C(O)[C@H]1CCCNC1 39.8 µM [decreasing], OC1(c2ccc(Cl)cc2)CCN(Cc2c[nH]c3ccccc23)CC1 39.8 µM [decreasing], Cc1ccc(C)c(S(=O)(=O)c2c(N)n(/N=C/c3ccco3)c3nc4ccccc4nc23)c1 39.8 µM [decreasing], O=c1nc2s/c(=C\c3ccco3)c(=O)n2nc1Cc1ccc(F)cc1 39.8 µM [decreasing], CC(C)C[C@@H](CC(=O)N[C@@H](CCC(=O)O)CC(=O)O)NC(=O)[C@@H]1CNCC[C@H]1NC(=O)C[C@H](CCCN)NC(=O)C[C@H](Cc1c[nH]c2ccccc12)NC(=O)[C@@H]1CNCC[C@H]1N 39.8 µM [decreasing], CC(C)C[C@H](NC(=O)N1CCCCCC1)C(=O)N[C@H](Cc1cn(C)c2ccccc12)C(=O)N[C@H](Cc1ccccn1)C(=O)O 39.8 µM [decreasing], O=C(CN1C2=NCCCN2c2ccccc21)c1ccc(Br)s1 31.6 µM [decreasing], COC(=O)C[C@](O)(CCCC(C)(C)O)C(=O)O[C@@H]1C(OC)=C[C@]23CCCN2CCc2cc4c(cc2[C@H]13)OCO4 39.8 µM [decreasing], NC1=NC(=Nc2ccccc2)c2ccccc21 31.6 µM [decreasing], CC(=O)O[C@H]1C(=O)[C@]2(C)[C@H]([C@H](OC(=O)c3ccccc3)[C@@]3(O)C[C@H](OC(=O)[C@@H](O)[C@@H](NC(=O)c4ccccc4)c4ccccc4)C(C)=C1C3(C)C)[C@]1(OC(C)=O)CO[C@@H]1C[C@@H]2O 39.8 µM [decreasing], N[C@@H](Cn1ccc(=O)n(Cc2ccccc2C(=O)O)c1=O)C(=O)O 39.8 µM [decreasing], Cc1cnc(CNc2ncncc2-c2ccc(N(C)C)cc2)cn1 39.8 µM [decreasing], CCC(=O)c1ccc2c(c1)N(CCCN(C)C)c1ccccc1S2 3.16 µM [decreasing]

Potency, active:
c1coc(CN=C2NC(=NCc3ccco3)c3ccccc32)c1 10 µM, c1ccc2c(Nc3ccncc3)nc(-c3ccoc3)nc2c1 7.94 µM, Cc1nn2c(c1-c1ccccc1)N=C(c1ccco1)CC2c1ccccc1 (stereo not given) 10 µM, CN[C@@H]1[C@H](O)[C@H](NC)[C@@H]2O[C@]3(O)C(=O)C[C@@H](C)O[C@H]3O[C@@H]2[C@H]1O 39.8 µM, Cc1cc(C)c(/C=C2/C(=O)Nc3ccccc32)[nH]1 1 µM, OC12CCCCC1C(c1ccc3c(c1)OCO3)N(Cc1cccc(F)c1)CC2 (stereo not given) 15.8 µM, CN(C)CCCNc1cc(O)c2c(c1O)C(=O)c1ccccc1C2=O 1 µM, NS(=O)(=O)c1ccc(N=Nc2cc3ccccc3c(C(=O)O)c2O)cc1 1.26 µM, CC1=C(/C=C/C(C)=C/C=C/C(C)=C/CO)C(C)(C)CCC1 31.6 µM, COc1ccc(Cc2nnc3n2N=C(c2cc4ccccc4o2)CS3)cc1OC 31.6 µM, Cc1ccccc1-c1ccc(Nc2ccc(N3CCOCC3)cc2)nn1 15.8 µM, COc1cccc(Cn2c(=O)c(-c3ccccc3)nc3cncnc32)c1 20 µM, Cc1ccc2c(c1)c1cccc3c1n2CCN3CCC(N)=O 5.01 µM, COc1ccc(C2c3c(oc4ccccc4c3=O)C(=O)N2c2ccc(C)cn2)cc1OC (stereo not given) 6.31 µM, CCCC12CN3CC(C)(CN(C1)C31C(=O)Nc3ccc(C)cc31)C2=O (stereo not given) 20 µM, CC(=O)N1CCN(c2ccc(Nc3ncnc4c3oc3ccccc34)cc2)CC1 25.1 µM, CN(C)c1ccc(NC(=O)CCCc2ccccc2)cc1 20 µM

Activity change, negative = inhibition, inactive:
Cn1cccc1C(=O)N1CCC[C@@]2(CCN(C(=O)Nc3cccc(F)c3)C2)C1 4%, Nc1nc(SCC(=O)O)[nH]c(=O)c1N 4.3% [at 11.4 µM], O=C(NCCN1CCOCC1)NC1(C(F)(F)F)Oc2ccc(Cl)cc2O1 (stereo not given) -0.2%, Cc1ccc(-c2nnc(N3CCN(C(=O)c4ccco4)CC3)c3ccccc23)cc1 12.8%, CC(C)C(=O)NCCn1ccc2ccccc21 -2.7%, O=C(Nc1ccc(NC(=O)c2ccco2)nc1)c1cccnc1 5.9%, CS(=O)(=O)Nc1cccc(-c2nc(NCc3cccs3)c3ccccc3n2)c1 -19.4%, CCOC(=O)C1CCCN(S(=O)(=O)c2cccs2)C1 (stereo not given) -1.8%, Cc1noc(C)c1COC(=O)c1cc(C)n(-c2ccccc2)c1C -2.6%, COC(=O)c1ccc(CSc2ncnc3c2oc2ccccc23)o1 16.5%, Cc1ccccc1OCC(O)Cn1c(=N)n(CCN2CCOCC2)c2ccccc21 (stereo not given) 20.9%, COc1cc(C)c(C(C)C)cc1S(=O)(=O)N1CCN(C)CC1 9%, COc1nc(-c2ccccc2)ccc1-c1noc(-c2ccccc2F)n1 3.6%, NC(=O)CN1CCN(C(=O)NC2CCCCC2)CC1 3.5%, CCOc1ccc(C2c3c(oc4ccccc4c3=O)C(=O)N2CCCN2CCOCC2)cc1 (stereo not given) -23.5%, Cc1nc2sccn2c1P(c1c(C)nc2sccn12)c1c(C)nc2sccn12 -1.5%, CCN(CC)CCNC(=O)CCn1c(=S)[nH]c2cc3c(cc2c1=O)OCO3 -2.2%, Cc1nn(-c2nc3ccccc3s2)c(N)c1-c1ccc(Cl)cc1 52.9%, COc1ccc(Oc2ncc3nc(-c4cn(C)c5ccccc45)c(=O)n(CCC#N)c3n2)cc1 249%, CCOC(=O)C1=C(C)NC(=O)N[C@@H]1c1coc2cc(C)cc(C)c2c1=O 14.2% [at 11.4 µM], CCOC(=O)CC(=O)Nc1ccccc1C(=O)O 5.4%, O=C(COC(=O)C1CCC1)NCc1ccccc1Cl 3%, Cc1ccc(C)c(S(=O)(=O)C(C#N)c2nc3ccccc3nc2N2CCOCC2)c1 (stereo not given) -11.9%
